Where “and” joins values, the source holds several entries; their conditions need not be identical. Equal entries are not always repeated. Inconclusive results, whose numbers are uncertain, are shown with a selection of clear calls. A potency beside an inconclusive call is a rough fit, not a confirmed value. Calls of active or inactive are those of the source. Calls follow the shape of the dose curve; as a rule, active = well fitted cell-killing curve with a large enough effect in the repeat runs; inconclusive = weak or mixed curves, or effect the other way; inactive = no such curve, though single readings can be large or run the other way.
Experiment: qHTS assay for identifying genotoxic compounds that show differential cytotoxicity against isogenic chicken DT40 cell lines with known DNA damage response pathways - Rev3 mutant cell line (AID 743014); also: nearly all actives have a fitted effect of over 55% in size
Settings: chicken DT40 Rev3-/- viability, CellTiter-Glo, 40 h; activity, negative = cytotoxicity: at 68.4 µM (top of the series) unless noted
In the case of `O=C(c1ccc(O)cc1)c1ccc(O)cc1O`, the Potency is reported as inconclusive: 69.3 µM [cytotoxic, single point]. For `O=C(O[C@@H]1Cc2c(O)cc(O)cc2O[C@@H]1c1cc(O)c(O)c(O)c1)c1cc(O)c(O)c(O)c1`, the Potency was inconclusive: 66.1 µM [cytotoxic, single point]. For `CCCCNS(=O)(=O)c1ccccc1`, the Potency was “inactive”. For `CCOC(=O)O[C@H](C)OC(=O)c1ccc2c(c1)cc(C(=O)NC1CCN(C(C)C)CC1)n2Cc1cc(-c2ccc(Cl)s2)on1`, the Potency was active: 11.4 µM. For `c1ccc2c(c1)-c1cccc3c1c-2cc1ccccc13`, the activity, negative = cytotoxicity was inconclusive: -31.2% [cytotoxic]. In the case of `CCN(CC)CCOC(=O)C1(C2CCCCC2)CCCCC1`, the Potency is reported as active: 21.1 µM. In the case of `O=C(O)c1ccc(S(=O)(=O)N(Cl)Cl)cc1`, the Potency is reported as inconclusive: 13.3 µM [rising, partial curve]. In the case of `CCCCC(CC)COC(=O)CC(C(=O)OCC(CC)CCCC)S(=O)(=O)O` (stereo not drawn), the Potency is reported as inconclusive: 58.8 µM [cytotoxic, single point] and inconclusive: 24.3 µM [cytotoxic, partial curve]. With `CCCCCCCCCCCCCC(=O)OC(C)C` the Potency was “inactive and inconclusive: 53.7 µM [cytotoxic] and inconclusive: 27.3 µM [cytotoxic, partial curve, poor fit]”. In the case of `Cc1ccc(O)c(C(C)(C)C)c1`, the Potency is reported as inconclusive: 61.1 µM [cytotoxic, single point]. With `COc1cc(/C=C/C(=O)CC(=O)/C=C/c2ccc(O)c(OC)c2)ccc1O` the Potency was inconclusive: 29.8 µM [cytotoxic, single point]. With `CC(O)C(=O)O` (stereo not drawn) the Potency was “inactive”. For `CCN(CC)c1ccc2c(C)cc(=O)oc2c1`, the Potency was inconclusive: 61.1 µM [cytotoxic, single point]. For `SCCCCCCCCS`, the Potency was inconclusive: 27.3 µM [cytotoxic, single point]. For `CC(C)OC(=O)C(C)(C)Oc1ccc(C(=O)c2ccc(Cl)cc2)cc1`, the Potency was inconclusive: 11.9 µM [cytotoxic, partial curve]. In the case of `CN(C)c1cccc(O)c1`, the Potency is reported as inconclusive: 68.6 µM [cytotoxic, single point]. In the case of `CC(O)CO` (stereo not drawn), the Potency is reported as inconclusive: 68.6 µM [cytotoxic, single point]. With `O=c1n(CC2CO2)c(=O)n(CC2CO2)c(=O)n1CC1CO1` (stereo not drawn) the Potency was inconclusive: 0.0153 µM [cytotoxic, full curve, poor fit]. For `CCCCCCOC(=O)c1ccc(O)cc1`, the Potency was active: 48.6 µM and inconclusive: 68.6 µM [cytotoxic, single point]. For `CC(C)Oc1ccc2c(=O)c(-c3ccccc3)coc2c1`, the Potency was inconclusive: 11.9 µM [cytotoxic, single point]. In the case of `O=C(OCC1CCC2OC2C1)C1CCC2OC2C1` (stereo not drawn), the Potency is reported as active: 10.1 µM and active: 9.69 µM. With `Clc1ccc2n[nH]nc2c1` the Potency was inconclusive: 68.6 µM [cytotoxic, single point]. In the case of `c1ccc(-c2ccc(C(c3ccccc3)n3ccnc3)cc2)cc1` (stereo not drawn), the Potency is reported as inconclusive: 21.1 µM [cytotoxic, partial curve, poor fit]. With `NC(N)=NC(N)=NCCc1ccccc1` the Potency was inconclusive: 12.7 µM [cytotoxic, partial curve]. With `CN(C)CCN(Cc1cccs1)c1ccccn1` the Potency was inconclusive: 68.2 µM [cytotoxic, single point] and the activity, negative = cytotoxicity was inconclusive: -32.3% [cytotoxic] [at 31.4 µM]. With `CCn1c2ccccc2c2cc(N)ccc21` the Potency was inconclusive: 21.5 µM [cytotoxic, partial curve] and inconclusive: 68.6 µM [cytotoxic, single point]. For `CC1CCCNC1` (stereo not drawn), the Potency was inconclusive: 67.1 µM [cytotoxic]. In the case of `CCN(CC)CCOC(=O)c1ccc(N)cc1`, the Potency is reported as inconclusive: 16.2 µM [cytotoxic, partial curve]. With `CC(C)(C)c1ccc(O)c(O)c1` the Potency was active: 12.6 µM and active: 7.27 µM. With `CCCCCCCCCCOCC(O)CN` (stereo not drawn) the Potency was active: 6.68 µM. With `CC[C@]12CCCN3CCc4c(n(c5ccccc45)[C@@](O)(C(=O)OC)C1)[C@@H]32` the Potency was “inactive”. For `CCCCCCCCCCCCOCC1CO1` (stereo not drawn), the Potency was inconclusive: 61.3 µM [cytotoxic, partial curve, poor fit].
% is scaled to controls: 0 for no effect and ±100 for the full control effect; potency is read from the fitted curve at half-maximal effect; tags tell the direction and shape of the fitted curve.
